The results in this text go back to the supplement of paper PMC4604168 (melanoma cell lines).

The other results are listed elsewhere or left out. Single values are uncertain, as repeats are few or missing.
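Note: cells treated in 1,536-well plates, then fixed and DAPI-stained, with nuclei counted from automated high-throughput microscope images.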

The subject of this assay is A2058. Description: cell count relative to DMSO control; melanoma cells; higher = more viable cells. Conditions: library dose: standard library concentration; 72 h.
As to `Cc1ccc(NC(=O)c2cccc(N(C)C)c2)cc1NC(=O)c1ccc(O)cc1` + O=c1cc(-c2cccc3c2Sc2ccccc2S3)oc(N2CCOCC2)c1 [KU55933] (first compound 10 µM, partner dose 5 µM), the cell count is 82.9%.

`CC(C)(C)c1cnc(CSc2cnc(NC(=O)C3CCNCC3)s2)o1` + CCCCCCCCCCCC1=C(O)C(=O)C=C(O)C1=O [Embelin] (first compound 0.05 µM, partner dose 6 µM) displayed a cell count of 92%. Next, `CC(C)(C)c1cnc(CSc2cnc(NC(=O)C3CCNCC3)s2)o1` + CC(C)CCN1c2nc(Nc3cc(F)c(O)c(F)c3)ncc2N(C)C(=O)C1C [BID1870] (first compound 0.05 µM, partner dose 1 µM): 72.8%. `NC(=O)c1ccc(N(C(N)=O)c2c(F)cccc2F)nc1-c1ccc(F)cc1F` + Oc1cc(-c2nc(-c3ccccc3)[nH]c2-c2ccncc2)ccc1Cl [L779450] (first compound 2 µM, partner dose 1 µM): the cell count is 95.7%. `CN(NC(=O)CC(=O)NN(C)C(=S)c1ccccc1)C(=S)c1ccccc1` + O=c1cc(-c2cccc3c2Sc2ccccc2S3)oc(N2CCOCC2)c1 [KU55933] (first compound 0.03 µM, partner dose 5 µM) gave a cell count of 11.3%.

`NC(=O)c1ccc(N(C(N)=O)c2c(F)cccc2F)nc1-c1ccc(F)cc1F` + O=S(=O)(c1ccccc1)N(CC(F)(F)F)c1ccc(C(O)(C(F)(F)F)C(F)(F)F)cc1 [T0901317] (first compound 2 µM, partner dose 7 µM) yielded a cell count of 116%.
